Data: article PMC4336329 (PLoS ONE, 2015)
In all, about 310,000 compounds went through this assay and about 2,200 (0.71%) showed an effect of 50% or more. Effects have a minus sign here. This is one part of the list.

Molecular target: human ether-à-go-go-related gene (hERG) potassium channel (human, UniProt Q12809)
Experiment: primary screen, population patch clamp on CHO cells stably expressing hERG

human ether-à-go-go-related gene (hERG) potassium channel, sequence (Q12809 whole entry, looked up): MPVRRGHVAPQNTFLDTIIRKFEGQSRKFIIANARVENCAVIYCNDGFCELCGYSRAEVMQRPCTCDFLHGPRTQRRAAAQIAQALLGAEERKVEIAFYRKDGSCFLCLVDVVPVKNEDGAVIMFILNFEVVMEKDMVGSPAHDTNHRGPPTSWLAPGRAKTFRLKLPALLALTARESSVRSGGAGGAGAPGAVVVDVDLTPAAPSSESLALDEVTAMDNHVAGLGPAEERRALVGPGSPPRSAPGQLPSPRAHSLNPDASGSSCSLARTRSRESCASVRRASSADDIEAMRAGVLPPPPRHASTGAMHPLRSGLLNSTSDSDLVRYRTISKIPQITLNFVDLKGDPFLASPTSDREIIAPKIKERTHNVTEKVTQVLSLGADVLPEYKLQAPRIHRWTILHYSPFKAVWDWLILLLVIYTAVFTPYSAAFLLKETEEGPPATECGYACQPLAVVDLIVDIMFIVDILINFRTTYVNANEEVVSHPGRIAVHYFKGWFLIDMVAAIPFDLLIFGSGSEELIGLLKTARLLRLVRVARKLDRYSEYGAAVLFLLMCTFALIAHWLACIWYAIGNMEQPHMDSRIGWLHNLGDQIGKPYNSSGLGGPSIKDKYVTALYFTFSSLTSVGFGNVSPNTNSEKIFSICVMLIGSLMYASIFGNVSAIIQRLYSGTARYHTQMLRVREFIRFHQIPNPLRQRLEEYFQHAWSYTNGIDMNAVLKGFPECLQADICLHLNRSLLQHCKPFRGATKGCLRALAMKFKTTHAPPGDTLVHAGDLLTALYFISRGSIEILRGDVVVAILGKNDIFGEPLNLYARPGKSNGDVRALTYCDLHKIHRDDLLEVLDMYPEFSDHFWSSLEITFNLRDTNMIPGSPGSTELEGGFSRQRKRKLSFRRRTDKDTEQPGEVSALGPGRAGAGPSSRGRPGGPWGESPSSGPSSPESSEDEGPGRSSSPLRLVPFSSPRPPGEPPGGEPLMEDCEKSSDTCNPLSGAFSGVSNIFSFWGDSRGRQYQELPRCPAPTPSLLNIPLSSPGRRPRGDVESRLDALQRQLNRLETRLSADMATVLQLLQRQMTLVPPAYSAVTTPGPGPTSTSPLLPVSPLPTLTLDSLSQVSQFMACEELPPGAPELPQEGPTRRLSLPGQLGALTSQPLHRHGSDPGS

Compound	hERG current change (%, negative = inhibition) at 1uM [%]
CCOC(=O)C1=C(COC(=O)c2cccc(N(C)C)c2)NC(=O)NC1C (stereo not drawn)	13.8
CN(/N=C/c1cccnc1)c1cnn(-c2ccc(F)c(Cl)c2)c(=O)c1Cl	3.74
CCOC(=O)C1CCCN(C(=O)COc2ccc(N(C)S(=O)(=O)c3ccc(F)cc3)cc2)C1 (stereo not drawn)	-25.1
Cc1nc(NC(=O)CN2CCOCC2)sc1-c1ccccc1	7.04
COC(=O)c1ccc(N2CCN(C)CC2)c(NC(=O)c2cccs2)c1	11.9
CCn1c(=O)cc(SCC(=O)NCCCN2CCN(c3ccc(F)cc3)CC2)c2ccccc21	-6.48
C/C(=N\N=C(/N)SC1CC(=O)N(c2ccc(Br)cc2)C1=O)c1cccs1 (stereo not drawn)	-0.809
O=C(O)c1cccnc1SCCc1ccccc1	2.26
CCN(C(=O)c1ccc2c(OC)n(CC)nc2c1)c1ccc(OC)cc1	0.888
C/C(=N\NC(=O)C(C)Sc1ccccc1)C(C)(C)C (stereo not drawn)	4.08
O=C(Nc1ccc(Oc2ccc(NC(=O)Nc3ccc([N+](=O)[O-])cc3)cc2)cc1)Nc1ccc([N+](=O)[O-])cc1	15.7
CCCCn1c(N)c(N(CCOC)C(=O)c2ccc(C)o2)c(=O)[nH]c1=O	11.7
COc1ccccc1NC(=O)C(=O)N(c1cccnc1)C(C(=O)NC(C)(C)C)c1ccccc1 (stereo not drawn)	-5.38
Cc1ccc(C)c(NC(=S)NCCN(C2CCCCC2)C2CCCC2)c1	-25.4
CCc1nc2cc3sc(CC)nc3cc2s1	3.35
Cc1ccc(C)c(NC(=S)NCc2cccn2C)c1	-0.17
Cc1cc(N=Cc2c(O)ccc3cc(Br)ccc23)no1	5.18
CNC(=S)N(C)CCc1cc2c(c(OC)c1C=C1C(=O)NC(=O)NC1=O)OCO2	9.86
CCOP(=O)(OCC)C(C)(C)NC(=O)Nc1ccc(Cl)c(Cl)c1	9.82
Cc1cc(C(=O)N2CCN(c3ccc([N+](=O)[O-])cc3)CC2)no1	-36
O=C(CS(=O)(=O)c1ccc(Cl)c(Cl)c1)Nc1ccccc1Cl	22.4
COc1cc(C(=O)NC(CCSC)C(=O)OCc2cc([N+](=O)[O-])cc3c2OCOC3)cc(OC)c1OC (stereo not drawn)	-0.836

Compound	hERG current change (%, negative = inhibition) at 1uM [%]
CS(=O)(=O)c1ccc2nc(NC(=O)c3ccc(Cl)cc3)sc2c1	6.92
O=C(CNC(=O)C1CCCCC1)NNC(=O)c1ccc(Cl)cc1Cl	11.6
Cc1cc(Oc2ccc3ccccc3c2)nc(SCC(=O)c2ccccc2)n1	11.5
C/C(=N\NC(=O)c1n[nH]c2c1CCC2)c1ccco1	10.2
CCOC(=O)c1c(NC(C)=O)sc2c(O)c(CN3CCN(CC)CC3)ccc12	11.2
Cc1cc(C)n2nc(C(=O)OCCOc3cccc(Br)c3)nc2n1	-11
COc1ccccc1N1CCN(C(=O)c2oc3ccc(Br)cc3c2C)CC1	14.2
Nc1ccc(S(=O)(=O)O)cn1	4.06
CN(CCNC(=O)C1CCN(S(=O)(=O)N2CCOCC2)CC1)CCc1ccccc1	-2.64
CN(CP(=O)(O)CCc1ccccc1)S(C)(=O)=O	11.4
O=C(COc1ccc2oc3c(c2c1)CCCC3)Nc1ccccn1	9.85
Cc1nc(SCC(=O)Nc2ccc(F)cc2)c(C#N)c(C)c1CC(=O)c1ccc(Br)cc1	11.2
O=C(CNS(=O)(=O)c1ccccc1)OCC(=O)c1ccccc1Cl	9.62
COC(=O)c1c(NC(=S)NN2CCOCC2)sc2c1CCCC2	7.1
CCOC(=O)CSc1nc(C)cc(=O)[nH]1	15.2
COc1ccc(NC(=O)Cn2c3ccccc3c3nc4n(c(=O)c32)CCS4)cc1OC	21.4
COC(=O)c1cccc(NC(=O)Cc2nc(-c3ccccc3)sc2-c2ccc(C)cc2)c1	12.9
O=C(CN1CCN(C(=O)c2ccc(-c3nc4ccccc4s3)o2)CC1)Nc1ccc(F)cc1	-42.8
Oc1ccc(CNc2ccc(F)cc2)c2cccnc12	9.56
O=C(CN1C(=O)C2C3C=CC(C3)C2C1=O)OCC(=O)c1ccccc1 (stereo not drawn)	4.53
Cc1ccc(CSc2nnnn2C)cc1	11.1
Cc1cc(C)c2cc(C(c3nnnn3C3CCCC3)N3CCOCC3)c(=O)[nH]c2c1 (stereo not drawn)	9.74

Compound	hERG current change (%, negative = inhibition) at 1uM [%]
CN(C)c1ccc(C(=S)N2CCN(C(=S)Nc3ccccc3)CC2)cc1	18.7
O=C(COC(=O)COc1ccccc1[N+](=O)[O-])NC1CCCC1	15.8
CC(C)(C)C(=O)NNC(=O)COc1ccc2ccccc2c1Br	12
COc1ccc(-c2cc3ccc(OCC(C)=O)cc3oc2=O)cc1	22.2
COc1ccc(CN2C(=O)CC(=O)NC2=S)cc1	13
Cc1ccc(S(=O)(=O)N2CCCC(C(=O)NCc3ccc4c(c3)OCO4)C2)cc1 (stereo not drawn)	8.44
CC(=O)C1=C(O)C(=O)N(c2ccc(O)cc2)C1c1ccccc1[N+](=O)[O-] (stereo not drawn)	11.5
COc1ccc(N2CCN(C(=O)C3CCN(S(=O)(=O)c4ccc(F)cc4)CC3)CC2)cc1	0.532
CCOc1ccc(C(=O)C(C)OC(=O)c2nc(Cl)ccc2Cl)cc1 (stereo not drawn)	-1.36
CCOc1ccc(C2C(C(=O)c3cccs3)=C(O)C(=O)N2CCCn2ccnc2)cc1 (stereo not drawn)	2.41
CC(=O)c1ccc(NC(=O)c2sc3nc(N4CCOCC4)c4c(c3c2N)CCCC4)cc1	13.3
COC(=O)C1C(c2ccccc2)C(C(=O)OCc2ccco2)C1c1ccccc1 (stereo not drawn)	6.64
CCN(CC)S(=O)(=O)c1ccc(-c2nnc(SCC(=O)N3CCc4ccccc43)o2)cc1	10.8
COc1ccc(C(CNC(=O)COc2c(C)cc(C)cc2C)N2CCOCC2)cc1 (stereo not drawn)	14.3
CCN(C(=O)COC(=O)/C=C/c1ccc(O)c(OC)c1)C1CCS(=O)(=O)C1 (stereo not drawn)	9.78
COc1ccccc1C(=O)Nn1c(C)nc2ccccc2c1=O	14.8
O=C(COc1ccc(Cl)cc1Cl)NC1CCSC1=O (stereo not drawn)	12.5
O=C(c1ccco1)N1CCN(C(c2ccc(Cl)cc2)c2nnnn2CC2CCCO2)CC1 (stereo not drawn)	-0.951
CCOC(=O)c1cnn(-c2sc(C(=O)OCC)c(C)c2C(=O)OCC)c1N	16.6
CCOCCOCCC(C(=O)OCC)P(=O)(c1ccccc1)c1ccccc1 (stereo not drawn)	6.44
COCCn1c(Cc2ccccc2)nnc1SCC(=O)N1CCOCC1	11
CCN(CC)C(=O)CNc1ccc(C(F)(F)F)cc1[N+](=O)[O-]	5.65

Compound	hERG current change (%, negative = inhibition) at 1uM [%]
COc1ccccc1CNC(=O)CCCc1nnc2n(C)c(=O)c3sccc3n12	10.1
CCOc1cc(C(c2c(C)[nH][nH]c2=O)c2c(C)[nH][nH]c2=O)cc(Cl)c1O	13.9
Cc1nc(SCC(N)=O)[nH]c(=O)c1CCC(C)C	3.67
CC(=O)N1CCOc2ccc(S(=O)(=O)NCC3CCC(C(=O)Nc4ccc(C)cn4)CC3)cc21 (stereo not drawn)	3.17
NS(=O)(=O)c1ccc(CCNC(=O)c2cc3ccccc3oc2=O)cc1	11.2
CCC(=O)Nc1c(C#N)c2nc3ccccc3nc2n1C1CCCCC1	16.5
CCOC(=O)C1CCN(S(=O)(=O)c2c(Cl)ccc3nonc23)CC1	10.2
O=C(CNC(=O)c1ccco1)NC1CCCCCC1	4.18
CCn1c(SCC(=O)N/N=C/c2ccc(C)o2)nnc1-c1ccccc1	1.67
CCOC(=O)C(C)(C)N(Cc1ccccc1C)S(=O)(=O)c1ccc(Cl)c([N+](=O)[O-])c1	6.43
Cc1ccc(NC(=O)Cn2c(O)c(N=NC(=O)c3cc([N+](=O)[O-])ccc3O)c3ccccc32)cc1	5.03
COc1cccc(C(=O)Nc2c3c(nn2-c2ccc(Cl)cc2)CS(=O)(=O)C3)c1OC	-0.486
N#Cc1cccnc1N1CCN(C(=O)c2cccs2)CC1	7.29
O=C(CCCNC(=O)c1ccc(Cl)cc1)Nc1ccccc1C(F)(F)F	0.224
COC(=O)c1nc(NC(=O)c2ccc(Cl)cc2)n[nH]1	14.1
COc1ccc(-c2cc(C(F)(F)F)nc(N3CCOCC3)n2)cc1	19.9
Cc1c(S(=O)(=O)Nc2ccc(Oc3ccccc3)cc2)c(=O)n(C)c(=O)n1C	4.73
CC(=O)Nc1ccc(NC(=O)C2CC(=O)Nc3ncnn32)cc1 (stereo not drawn)	7.74
O=C(NNC(=S)NC(=O)c1ccccc1[N+](=O)[O-])c1ccc(Cl)cc1Cl	9.26
COc1ccc(NC(c2ccccc2)c2ccncc2)cc1.Cl (stereo not drawn)	7.55
COc1cc(NC(=O)CSCc2ccc(Cl)cc2)c(C(=O)O)cc1OC	13.7
